The other results are listed elsewhere or left out.
What was measured:
Assay in all cases: glycan array binding signal (z-score within array); higher = stronger binding
Settings in all cases: glycan notation: IUPAC condensed, linker removed
[1] = target: GlcNAc(a1-4)Gal(b1-3)GlcNAc
Outline: (§1)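 Columns mapping to the same glycan were averaged after glycan names were converted to IUPAC-condensed notation. The data come from 3228 arrays in the Consortium for Functional Glycomics database, limited to those with an available protein sequence. Binding is reported as a within-array Z-score averaged across arrays of one protein sequence and across linkers.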

[2] = target: GlcNAc(a1-4)Gal(b1-4)GalNAc
Outline: as §1

[3] = target: GlcNAc(a1-4)Gal(b1-4)GlcNAc
Outline: as §1

[4] = target: GlcNAc(a1-4)Gal(b1-4)GlcNAc(b1-3)Gal(b1-4)Glc
Outline: as §1

[5] = target: GlcNAc(a1-4)Gal(b1-4)GlcNAc(b1-3)Gal(b1-4)GlcNAc
Outline: as §1

[6] = target: GlcNAc(a1-4)Gal(b1-4)GlcNAc(b1-3)Gal(b1-4)GlcNAc(b1-3)Gal(b1-4)GlcNAc
Outline: as §1

[7] = target: GlcNAc(a1-4)Gal(b1-4)GlcNAc(b1-3)Gal(b1-4)[Fuc(a1-3)]GlcNAc(b1-3)Gal(b1-4)[Fuc(a1-3)]GlcNAc
Outline: as §1

[8] = target: GlcNAc(a1-6)Gal(b1-4)GlcNAc
Outline: as §1

[9] = target: GlcNAc(b1-2)Gal(b1-3)GalNAc
Outline: as §1

[10] = target: GlcNAc(b1-2)Man(a1-3)[GlcNAc(b1-2)Man(a1-6)]Man(b1-4)GlcNAc(b1-4)GlcNAc
Outline: as §1

[11] = target: GlcNAc(b1-2)Man(a1-3)[GlcNAc(b1-2)Man(a1-6)]Man(b1-4)GlcNAc(b1-4)[Fuc(a1-6)]GlcNAc
Outline: as §1

[12] = target: GlcNAc(b1-2)Man(a1-3)[GlcNAc(b1-4)][GlcNAc(b1-2)Man(a1-6)]Man(b1-4)GlcNAc(b1-4)GlcNAc
Outline: as §1

[13] = target: GlcNAc(b1-2)Man(a1-3)[GlcNAc(b1-4)][GlcNAc(b1-2)Man(a1-6)]Man(b1-4)GlcNAc(b1-4)[Fuc(a1-6)]GlcNAc
Outline: as §1

[14] = target: GlcNAc(b1-2)[GlcNAc(b1-4)]Man(a1-3)[GlcNAc(b1-2)Man(a1-6)]Man(b1-4)GlcNAc(b1-4)GlcNAc
Outline: as §1

[15] = target: GlcNAc(b1-2)[GlcNAc(b1-4)]Man(a1-3)[GlcNAc(b1-4)][GlcNAc(b1-2)Man(a1-6)]Man(b1-4)GlcNAc(b1-4)GlcNAc
Outline: as §1

[16] = target: GlcNAc(b1-2)[GlcNAc(b1-4)]Man(a1-3)[GlcNAc(b1-4)][GlcNAc(b1-2)[GlcNAc(b1-6)]Man(a1-6)]Man(b1-4)GlcNAc(b1-4)GlcNAc
Outline: as §1

[17] = target: GlcNAc(b1-2)[GlcNAc(b1-4)]Man(a1-3)[GlcNAc(b1-4)][GlcNAc(b1-2)[GlcNAc(b1-6)]Man(a1-6)]Man(b1-4)GlcNAc(b1-4)[Fuc(a1-6)]GlcNAc
Outline: as §1

[18] = target: GlcNAc(b1-2)[GlcNAc(b1-6)]Man(a1-6)[GlcNAc(b1-2)Man(a1-3)]Man(b1-4)GlcNAc(b1-4)GlcNAc
Outline: as §1

[19] = target: GlcNAc(b1-2)[GlcNAc(b1-6)]Man(a1-6)[GlcNAc(b1-2)Man(a1-3)]Man(b1-4)GlcNAc(b1-4)[Fuc(a1-6)]GlcNAc
Outline: as §1

B1: PX14375l-pdi-526-25-526 (Parabacteroides distasonis) (protein)
chain: DEEPKSTLTDVAYYKTQSQMESNVNYLYRTGAIGSYVDFGSAYIGPFASIQEELTGYFSNSYEGQEIVCRYTRELTRQQNTMQLASKMDKVWDDCYRGINVANGAIKHMPEVPMDQATADRLTAEAKFFRAFNYFYLVKTFGAVPFYTDPYELAENMELPRTETSTIYNQIESDLKDAMNVLPEATFAANGHRITKYVAAMTLTDVYMYQHKYAEAAETVRIVVNSNHKLTTNDDLAMNSAFNKLRSTDDLDEAIYAYEYDNQISPSNWLPTYAFDGDASSNGLFGTYAITQKVHGPNDRYLNIYESNDLRRQPNQFYHWTYTNPKTGKVWNSVGNAACCWYYYDEDALLTTGRGTKDWNVYRYAEALLDAAESIAQSTGVTAEAAGYLAQVKARANMEGKTAAEIASSLQSMGKQAFIEECWTERLRELPLEFKMWDMCVRTGMFPNISETTPGQVTYIPLVGAKNASGATIKESDLLWPLSVNEIQRNPSLTQNEGYSAK
In the case of B1, the “glycan array binding signal (z-score)” value [1] is reported as -0.343, the “glycan array binding signal (z-score)” value [2] is reported as -0.157 and the “glycan array binding signal (z-score)” value [3] is reported as -0.095. For the same binder, the “glycan array binding signal (z-score)” value [4] was -0.255, the “glycan array binding signal (z-score)” value [5] was -0.254 and the “glycan array binding signal (z-score)” value [6] was -0.191. For the same binder, the “glycan array binding signal (z-score)” value [7] was -0.286, the “glycan array binding signal (z-score)” value [8] was -0.382 and the “glycan array binding signal (z-score)” value [9] was -0.124. For the same binder, the “glycan array binding signal (z-score)” value [10] was -0.225, the “glycan array binding signal (z-score)” value [11] was 0.067 and the “glycan array binding signal (z-score)” value [12] was -0.304. For the same binder, the “glycan array binding signal (z-score)” value [13] was -0.202, the “glycan array binding signal (z-score)” value [14] was -0.508 and the “glycan array binding signal (z-score)” value [15] was -0.387. The “glycan array binding signal (z-score)” value [16] was -0.349, the “glycan array binding signal (z-score)” value [17] was -0.397 and the “glycan array binding signal (z-score)” value [18] was -0.052. For the same binder, the “glycan array binding signal (z-score)” value [19] was -0.107.
